Experimental data reported in the supplement of paper PMC11417369.
± gives the standard deviation of the averaged measurements. The list shows a part of the results.

tested on: PfAP2-LT AP2 domain (GST-tagged); assay: gcPBM binding intensity (ln(normalized median fluorescence intensity)); higher = stronger DNA binding
In short: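 An Agilent 4 × 180k array carrying primer-extended double-stranded 36-bp intergenic genomic probes and negative controls received GST-tagged P. falciparum DNA-binding domains expressed in E. coli, about 25 μg on average, for 1 h. The binding buffer contained 1× PBS, 1% milk, 0.2 mg/ml BSA, 0.5% salmon testes DNA and 0.03% Triton X-100. Binding intensity is the top Masliner-normalised natural-log median intensity across replicate spots of either probe orientation, read after Alexa488 anti-GST antibody staining and a 488 nm scan.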

Sequence | gcPBM binding intensity (ln)
ATAATATATATATATGCATGTACATATTTATCTTTA [TGCATGCA_site32] | 8.93 ± 0.36
AAGGCAAGCACTTAAACATGCATATAATAATATCAT [TGCATGCA_site698] | 8.87 ± 0.4
AAAAAAAAAAAAAACATACACACAAATATATACATA [CACACA_site4010] | 9.05 ± 0.45
GAATTTTTTTAATGTTGTACTTTTTTTTTTTTTTCT [XGTACX_site648] | 8.62 ± 0.59
ACATATATATATATATATATATATATATTACATTTA [CACACA_negctrl_site627] | 9.28 ± 0.24
TTTTTGTTAAACAGGGTGCTAATCTGAATTAATATT [GTGCAC_site9908] | 8.37 ± 0.39
ACATATTTTATTTTTTGTACACATATATTATTTTTT [XGTACX_site6528] | 9.14 ± 0.55
TTATACATAAATTTTGTACACACAAAAAAAAAAAAG [CACACA_site8374] | 8.9 ± 0.47
TTTCAAAAGTAATACTGTACTTATTTTTATGATTTA [XGTACX_site4184] | 8.48 ± 0.47
TAGAAAAACATTACGTGTACCAAACATCCTAGCAAC [XGTACX_site4888] | 9.21 ± 0.32
ATATTATTTATAGGGTGTACCTTATTATTATAAGAA [XGTACX_site7148] | 8.38 ± 0.47
TATAATATTATACATAGTACACATCACACATCGCAA [XGTACX_site4650] | 9.1 ± 0.26
TATATACTTTTATGTACACACCTATAATATGGGTGA [CACACA_site5044] | 8.85 ± 0.44
AAAAAAAAAAAAAATACACACATAAAATAAATAACA [CACACA_site439] | 8.99 ± 0.52
TTTGGTTATATTTAAAAAAGACTAATGAAAATTAAA [XGTACX_negctrl_site526] | 8.09 ± 0.53
ATATATATATATTACACACACACAAAAAAAATAAAG [CACACA_site118] | 9.72 ± 0.28
AATTTACAAATATAATGTACATAATTATATATATAT [XGTACX_site278] | 8.7 ± 0.43
CATACCATACATAAAACACACAAAATTTACAGAATA [CACACA_site7451] | 9.15 ± 0.44
AATAGTAAAAATCACTGTACGTTTATTTTTAAAATG [XGTACX_site1035] | 8.63 ± 0.56
CCATATACAACCATACGTACATATATATATATATAT [XGTACX_site8193] | 9.67 ± 0.24
TTTTTATGGATATTTATATTATATTATGATTAAAAA [TGCATGCA_negctrl_site204] | 8.1 ± 0.37
GACATATAAATATACACACATACGTAAGTATATTAA [CACACA_site1790] | 9.03 ± 0.33

Sequence | gcPBM binding intensity (ln)
TGTATAATATATATATGTACTTATGTATAATATTAT [XGTACX_site4328] | 8.7 ± 0.44
AAGATATCTAAGGAAATTAAACTACCAAAATATATA [TGCATGCA_negctrl_site338] | 8.53 ± 0.56
TGCATAAAAGTAAAAACATGCATGCCGTGGTATCTT [TGCATGCA_site664] | 9.1 ± 0.3
AATATATTTATAAGCACACACTAATAAACACAGACA [CACACA_site4377] | 9.37 ± 0.27
AAATATATATATATATATATATATGTGTGTGTATAT [GTGCAC_negctrl_site1] | 9.79 ± 0.45
GTACATAATTATTATGCACACATATTTTTATGTATT [CACACA_site8132] | 9.08 ± 0.33
AATAATACAAAAGTTCAACAAAAAAAAAAAAAAAAT [CACACA_negctrl_site952] | 8.71 ± 0.49
CTTTATAATATTTGTTGTACACAAATATAACATATT [XGTACX_site709] | 8.76 ± 0.43
ATTTAAATATATTATTGTACATATACCTAATAAGAA [XGTACX_site6655] | 8.41 ± 0.47
ACTCCTATATAAATGAACCATATTCATAATATATAT [CACACA_negctrl_site1636] | 8.66 ± 0.41
TAATAATAATTATATACACACATGTATATTATATTT [CACACA_site1501] | 8.86 ± 0.38
AAATGAAAGAATTAAAGTACATTTATATAATTTTAA [XGTACX_site3540] | 8.51 ± 0.61
AAGAGAAAAACATACACACACAACAAAATATGTATA [CACACA_site2719] | 9.64 ± 0.28
TAAATATGCTCACAGATGCACTAACACATTTTTATA [GTGCAC_site9997] | 8.75 ± 0.49
TTTTATACATAAATGTGTACGTATATATAATGAATT [XGTACX_site2762] | 8.7 ± 0.39
TATTGTAGAGGCAAAAGTACACATTTAATAATTTCC [XGTACX_site1151] | 8.68 ± 0.46
ATCTATATAATATATACACACAAATATACAAAAAAA [CACACA_site1013] | 9.06 ± 0.45
TTATATTATATATATAGTACACATGTAATATTTCAA [XGTACX_site1791] | 8.66 ± 0.33
TACATGCATTTCTCATGTACATAATTTTCCCATATT [XGTACX_site5158] | 8.73 ± 0.38
ATAAATTAAAGACACACACACATCTGGATACCCCTA [CACACA_site7546] | 9.63 ± 0.25
TATGCTACAAGGAGAACACACAATTGCCACTTTTGG [CACACA_site2166] | 9.01 ± 0.37
AACCATTATTTCTCTACACACATTTATGTCATTTAC [CACACA_site1499] | 9.48 ± 0.45

Sequence | gcPBM binding intensity (ln)
TCCTTATATGGGCACACACACACAATAAAATGAAAA [CACACA_site1030] | 9.59 ± 0.48
AAAATTAGGTATATATGTACATATATAAATATATAT [XGTACX_site3555] | 8.96 ± 0.45
GTTTATATTAAACAAACACACACATATATATATATA [CACACA_site8749] | 9.57 ± 0.18
ATTTAGAATGCGTATACACACATATATAGATTTGCT [CACACA_site626] | 9.11 ± 0.28
AAAAAAATTAGACACACACACACATATAAATATGTA [CACACA_site6618] | 9.94 ± 0.26
AATAGAACTATTACACGTACAGAACATGAATTAGTT [XGTACX_site7518] | 8.91 ± 0.45
TTTTTTAATTAGTACAAACACACATATACAGACAAA [CACACA_site2564] | 8.84 ± 0.4
TGTTATATATGTAATTGTACACTTATACAAAATTAT [XGTACX_site6350] | 8.59 ± 0.44
TATTTAAGAGTATGAACACACATCATACACATATAA [CACACA_site3617] | 8.88 ± 0.38
TTATTAATATATAAATGTACATATACAATACATAAA [XGTACX_site5571] | 8.63 ± 0.38
TATGTTTGTGTATATATTTATTTTTATGTAATTATA [GTGCAC_negctrl_site219] | 8.82 ± 0.42
CAAAATATAACATCATCACACACATATACTTTATAT [CACACA_site8292] | 9.38 ± 0.38
ATTTAAAAATAAAGAACACACATATGTAAAATATAT [CACACA_site3754] | 8.98 ± 0.48
TCGACAATTTTATAAAGTACTTATTAGAAATATGAA [XGTACX_site7133] | 8.31 ± 0.4
CCATTTAAAACATTTTGTACTTATTTTACATTTCTG [XGTACX_site4270] | 8.87 ± 0.48
GATTCATTTCATAATACACACAACAAATATTTCAAA [CACACA_site120] | 8.75 ± 0.41
AGAAAAAAAAATTATACATGCATATACGTTTATTTT [TGCATGCA_site529] | 8.7 ± 0.52
AAACAAATAAAATTTATTAAAAAGGTCATATTATTA [CACACA_negctrl_site85] | 8.46 ± 0.58
ATATTTTATATTTCTTGTACATATATTTGTAGATAT [XGTACX_site1140] | 8.85 ± 0.45
TTTCTTACAACAACAACAAAAAAAAATAAATAAAAT [GTGCAC_negctrl_site711] | 8.51 ± 0.49
TATTATTTTTTTATTCTATTAAAAAGAAAAAAATGA [CACACA_negctrl_site407] | 7.88 ± 0.47
AATTTATTTTTAAAAAGTACATACTTAAGAAAACGA [XGTACX_site3660] | 8.4 ± 0.4

Sequence | gcPBM binding intensity (ln)
TATATATATATATAAACACACATAAATATAAATATA [CACACA_site1121] | 9.01 ± 0.32
TCTTTTACAAAAGCTATAACATTCACCACATTATAA [GTGCAC_negctrl_site133] | 8.48 ± 0.47
ATATATATATTTTATGCATGTTCATTTTCTATATTT [TGCATGCA_site442] | 9.09 ± 0.42
AAAAAAAAAATATACACACACATATATATATATATA [CACACA_site3404] | 9.885 ± 0.064
ATAATATATACGTGTGTGCACATGACAAAAGCATAT | 9.66 ± 0.27
GTTAATGTGGTTACTTGTACATATTAACGTCTTTTT [XGTACX_site2617] | 8.9 ± 0.46
ATAAAAAAAAGACACACACACATATATATATATATA [CACACA_site3073] | 10.2 ± 0.18
TCAACACACGTGGAATGTACTTTAGTATAAGAATTC [XGTACX_site7842] | 9.04 ± 0.49
TAAATATATTTCATGACATGCAACTTGTTTTTTTGT [TGCATGCA_site456] | 8.94 ± 0.5
CAAAGGGAAATTAACACACACATATTTATATTTATA [CACACA_site7202] | 9.2 ± 0.47
ATGTATATGATTAAATGTACGTAAACAAATTTGTAA [XGTACX_site8174] | 8.88 ± 0.38
ACCACATAAAACAAATGTACTTGAAATATATGCGTA [XGTACX_site5155] | 8.92 ± 0.4
TGCAGTCTGGAGAAGAGTACATAGTATCTGGTAGCT [XGTACX_site2021] | 8.82 ± 0.49
AAGAAAACTTAAAATAAAAGCATATTTTATCTTACA [TGCATGCA_negctrl_site366] | 8.32 ± 0.46
ATATATATATATATATGTACACACATCAATCATATT [XGTACX_site4005] | 9.96 ± 0.33
AGAGTACAAGTAAATACACACATATAGATGAAAATA [CACACA_site6635] | 9.33 ± 0.54
TATTAATAAATTTATAAAACAGGTATATATATATAT [CACACA_negctrl_site615] | 9.12 ± 0.15
AAAAAAAAAAGACACACACACAAAATAAACAAACAA [CACACA_site7308] | 10.1 ± 0.33
TATTTCATTAATGTCACTTTGAAAGAAATGAAAAAA [CACACA_negctrl_site1803] | 8.34 ± 0.45
TGCGTATATATATACACACACATATATATATTTTAA [CACACA_site1952] | 9.1 ± 0.3
TGTTTTTAAAAAAAAAAAAAATCACACCGGCAGGTA [CACACA_negctrl_site1437] | 8.4 ± 0.45
TATTGACATATATTAGTGCAATAATGAAATCAAGTA | 8.78 ± 0.45
